Assay results taken from the supplement of paper PMC8728848.
Some of the results follow.

Experiments:
Assay in all cases: glycan array binding signal (z-score within array); higher = stronger binding
Conditions in all cases: glycan notation: IUPAC condensed, linker removed
[1] = molecular target: Gal6S(b1-4)Glc6S
Outline: (§1)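 Glycan array data came from 3228 arrays in the Consortium for Functional Glycomics database, and only arrays with an available protein sequence were kept. Glycan names were put into IUPAC-condensed notation, and columns mapping to the same glycan were averaged. The binding signal is a within-array Z-score, averaged across arrays of one protein sequence run at different concentrations or buffers and across linkers. A negative Z-score can be read as non-binding.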

[2] = molecular target: Gal6S(b1-4)GlcNAc
Outline: as §1

[3] = molecular target: Gal6S(b1-4)GlcNAc6S
Outline: as §1

[4] = molecular target: GalNAc(a1-3)Gal
Outline: as §1

[5] = molecular target: GalNAc(a1-3)GalNAc
Outline: as §1

[6] = molecular target: GalNAc(a1-3)GalNAc(b1-3)Gal(a1-4)Gal(b1-4)Glc
Outline: as §1

[7] = molecular target: GalNAc(a1-3)GalNAc(b1-3)Gal(a1-4)Gal(b1-4)GlcNAc
Outline: as §1

[8] = molecular target: GalNAc(b1-3)Gal
Outline: as §1

[9] = molecular target: GalNAc(b1-3)Gal(a1-4)Gal(b1-4)GlcNAc
Outline: as §1

[10] = molecular target: GalNAc(b1-3)Gal(a1-4)Gal(b1-4)GlcNAc(b1-3)Gal(b1-4)Glc
Outline: as §1

[11] = molecular target: GalNAc(b1-3)Gal(a1-6)Gal(b1-4)Glc
Outline: as §1

[12] = molecular target: GalNAc(b1-3)GalNAc
Outline: as §1

[13] = molecular target: GalNAc(b1-4)Gal(b1-4)Glc
Outline: as §1

[14] = molecular target: GalNAc(b1-4)GlcNAc
Outline: as §1

[15] = molecular target: GalNAc(b1-4)GlcNAc(b1-2)Man(a1-3)[GalNAc(b1-4)GlcNAc(b1-2)Man(a1-6)]Man(b1-4)GlcNAc(b1-4)GlcNAc
Outline: as §1

[16] = molecular target: GalNAc(b1-6)GalNAc
Outline: as §1

[17] = molecular target: Glc(a1-4)Glc
Outline: as §1

[18] = molecular target: Glc(a1-4)Glc(a1-4)Glc(a1-4)Glc
Outline: as §1

[19] = molecular target: Glc(a1-6)Glc(a1-6)Glc
Outline: as §1

[20] = molecular target: Glc(a1-6)Glc(a1-6)Glc(a1-6)Glc
Outline: as §1

[21] = molecular target: Glc(b1-4)Glc
Outline: as §1

[22] = molecular target: Glc(b1-6)Glc
Outline: as §1

[23] = molecular target: GlcA(b1-3)Gal
Outline: as §1

[24] = molecular target: GlcA(b1-3)GlcNAc
Outline: as §1

[25] = molecular target: GlcA(b1-6)Gal
Outline: as §1

[26] = molecular target: GlcNAc(a1-3)Gal(b1-4)GlcNAc
Outline: as §1

[27] = molecular target: GlcNAc(a1-4)Gal(b1-3)GlcNAc
Outline: as §1

[28] = molecular target: GlcNAc(a1-4)Gal(b1-4)GalNAc
Outline: as §1

[29] = molecular target: GlcNAc(a1-4)Gal(b1-4)GlcNAc
Outline: as §1

[30] = molecular target: GlcNAc(a1-4)Gal(b1-4)GlcNAc(b1-3)Gal(b1-4)Glc
Outline: as §1

[31] = molecular target: GlcNAc(a1-4)Gal(b1-4)GlcNAc(b1-3)Gal(b1-4)GlcNAc
Outline: as §1

[32] = molecular target: GlcNAc(a1-4)Gal(b1-4)GlcNAc(b1-3)Gal(b1-4)GlcNAc(b1-3)Gal(b1-4)GlcNAc
Outline: as §1

[33] = molecular target: GlcNAc(a1-4)Gal(b1-4)GlcNAc(b1-3)Gal(b1-4)[Fuc(a1-3)]GlcNAc(b1-3)Gal(b1-4)[Fuc(a1-3)]GlcNAc
Outline: as §1

[34] = molecular target: GlcNAc(a1-6)Gal(b1-4)GlcNAc
Outline: as §1

[35] = molecular target: GlcNAc(b1-2)Gal(b1-3)GalNAc
Outline: as §1

[36] = molecular target: GlcNAc(b1-2)Man(a1-3)[GlcNAc(b1-2)Man(a1-6)]Man(b1-4)GlcNAc(b1-4)GlcNAc
Outline: as §1

[37] = molecular target: GlcNAc(b1-2)Man(a1-3)[GlcNAc(b1-2)Man(a1-6)]Man(b1-4)GlcNAc(b1-4)[Fuc(a1-6)]GlcNAc
Outline: as §1

[38] = molecular target: GlcNAc(b1-2)Man(a1-3)[GlcNAc(b1-4)][GlcNAc(b1-2)Man(a1-6)]Man(b1-4)GlcNAc(b1-4)GlcNAc
Outline: as §1

[39] = molecular target: GlcNAc(b1-2)[GlcNAc(b1-4)]Man(a1-3)[GlcNAc(b1-2)Man(a1-6)]Man(b1-4)GlcNAc(b1-4)GlcNAc
Outline: as §1

[40] = molecular target: GlcNAc(b1-2)[GlcNAc(b1-4)]Man(a1-3)[GlcNAc(b1-4)][GlcNAc(b1-2)Man(a1-6)]Man(b1-4)GlcNAc(b1-4)GlcNAc
Outline: as §1

[41] = molecular target: GlcNAc(b1-2)[GlcNAc(b1-4)]Man(a1-3)[GlcNAc(b1-4)][GlcNAc(b1-2)[GlcNAc(b1-6)]Man(a1-6)]Man(b1-4)GlcNAc(b1-4)GlcNAc
Outline: as §1

[42] = molecular target: GlcNAc(b1-2)[GlcNAc(b1-6)]Man(a1-6)[GlcNAc(b1-2)Man(a1-3)]Man(b1-4)GlcNAc(b1-4)GlcNAc
Outline: as §1

[43] = molecular target: GlcNAc(b1-2)[GlcNAc(b1-6)]Man(a1-6)[GlcNAc(b1-2)Man(a1-3)][GlcNAc(b1-4)]Man(b1-4)GlcNAc(b1-4)GlcNAc
Outline: as §1

[44] = molecular target: GlcNAc(b1-3)Gal
Outline: as §1

[45] = molecular target: GlcNAc(b1-3)Gal(b1-3)GalNAc
Outline: as §1

B1: GNAT (Pseudomonas aeruginosa), Q9HV14 (protein)
chain: MQLSHRPAETGDLETVAGFPQDRDELFYCYPKAIWPFSVAQLAAAIAERRGSTVAVHDGQVLGFANFYQWQHGDFCALGNMMVAPAARGLGVARYLIGVMENLAREQYKARLMKISCFNANAAGLLLYTQLGYQPRAIAERHDPDGRRVALIQMDKPLEP
[1]
  glycan array binding signal (z-score): -0.434
[2]
  glycan array binding signal (z-score): -0.282
[3]
  glycan array binding signal (z-score): 0.187
[4]
  glycan array binding signal (z-score): -0.297
[5]
  glycan array binding signal (z-score): -0.283
[6]
  glycan array binding signal (z-score): -0.385
[7]
  glycan array binding signal (z-score): -0.373
[8]
  glycan array binding signal (z-score): -0.348
[9]
  glycan array binding signal (z-score): -0.284
[10]
  glycan array binding signal (z-score): -0.33
[11]
  glycan array binding signal (z-score): -0.41
[12]
  glycan array binding signal (z-score): -0.427
[13]
  glycan array binding signal (z-score): -0.354
[14]
  glycan array binding signal (z-score): -0.403
[15]
  glycan array binding signal (z-score): 0.908
[16]
  glycan array binding signal (z-score): -0.454
[17]
  glycan array binding signal (z-score): -0.383
[18]
  glycan array binding signal (z-score): -0.475
[19]
  glycan array binding signal (z-score): -0.33
[20]
  glycan array binding signal (z-score): -0.327
[21]
  glycan array binding signal (z-score): -0.449
[22]
  glycan array binding signal (z-score): -0.226
[23]
  glycan array binding signal (z-score): -0.072
[24]
  glycan array binding signal (z-score): -0.352
[25]
  glycan array binding signal (z-score): -0.305
[26]
  glycan array binding signal (z-score): -0.432
[27]
  glycan array binding signal (z-score): -0.356
[28]
  glycan array binding signal (z-score): -0.256
[29]
  glycan array binding signal (z-score): -0.175
[30]
  glycan array binding signal (z-score): -0.338
[31]
  glycan array binding signal (z-score): -0.087
[32]
  glycan array binding signal (z-score): -0.299
[33]
  glycan array binding signal (z-score): 3.72
[34]
  glycan array binding signal (z-score): -0.405
[35]
  glycan array binding signal (z-score): -0.405
[36]
  glycan array binding signal (z-score): -0.357
[37]
  glycan array binding signal (z-score): -0.026
[38]
  glycan array binding signal (z-score): -0.416
[39]
  glycan array binding signal (z-score): -0.391
[40]
  glycan array binding signal (z-score): -0.318
[41]
  glycan array binding signal (z-score): -0.25
[42]
  glycan array binding signal (z-score): -0.257
[43]
  glycan array binding signal (z-score): -0.348
[44]
  glycan array binding signal (z-score): -0.354
[45]
  glycan array binding signal (z-score): -0.422
